According to the antibiotic and cytotoxicity screens of Wong et al. (2023):
This is one part of the list.

Experiments:
HSkMC = human skeletal muscle cells; assay: cytotoxicity call (relative viability < 0.9); conditions: 10 µM
HepG2 = assay: cytotoxicity call (relative viability < 0.9); conditions: 10 µM
S. aureus RN4220 = assay: growth inhibition call (relative growth <= 0.2); conditions: 50 µM

C[C@@H]1CN([C@@H](C)CO)C(=O)Cc2cc(NC(=O)C3CC3)ccc2O[C@H]1CN(C)C(=O)Nc1ccccc1
inactive: cytotoxicity call (HSkMC) | cytotoxicity call (HepG2) | growth inhibition call (S. aureus RN4220)

C[C@H]1CN([C@@H](C)CO)S(=O)(=O)c2ccc(C#CCN(C)C)cc2O[C@H]1CN(C)Cc1ccc2c(c1)OCO2
inactive: cytotoxicity call (HSkMC) | cytotoxicity call (HepG2) | growth inhibition call (S. aureus RN4220)

OCc1cccc(-c2ccsc2)c1
inactive: cytotoxicity call (HSkMC) | cytotoxicity call (HepG2) | growth inhibition call (S. aureus RN4220)

O=C(CCCCC(=O)N/N=C/[C@H](O)[C@H](O)[C@@H](O)[C@@H](O)CO)NO
inactive: cytotoxicity call (HSkMC) | cytotoxicity call (HepG2) | growth inhibition call (S. aureus RN4220)

C[C@H]1CN([C@@H](C)CO)C(=O)Cc2cc(NC(=O)c3ccncc3)ccc2O[C@@H]1CN(C)S(C)(=O)=O
inactive: cytotoxicity call (HSkMC) | cytotoxicity call (HepG2) | growth inhibition call (S. aureus RN4220)

C[C@H]1CCCCO[C@H](CN(C)C(=O)Nc2ccc(C(F)(F)F)cc2)[C@@H](C)CN([C@@H](C)CO)C(=O)c2cc(NC(=O)Nc3cccc4ccccc34)ccc2O1
inactive: cytotoxicity call (HSkMC) | cytotoxicity call (HepG2) | growth inhibition call (S. aureus RN4220)

C[C@@H]1CN([C@@H](C)CO)C(=O)Cc2cc(NS(=O)(=O)c3cn(C)cn3)ccc2O[C@@H]1CN(C)Cc1ccc(C(=O)O)cc1
inactive: cytotoxicity call (HSkMC) | cytotoxicity call (HepG2) | growth inhibition call (S. aureus RN4220)

CN1CCN(C(=O)C[C@H]2CC[C@H]3[C@@H](COC[C@H](O)CN3S(=O)(=O)c3cccc(Cl)c3)O2)CC1
inactive: cytotoxicity call (HSkMC) | cytotoxicity call (HepG2) | growth inhibition call (S. aureus RN4220)

C[C@H]1CN([C@@H](C)CO)C(=O)Cc2cc(NC(=O)Nc3cccc4ccccc34)ccc2O[C@@H]1CN(C)Cc1ccc(Oc2ccccc2)cc1
inactive: cytotoxicity call (HSkMC) | cytotoxicity call (HepG2) | growth inhibition call (S. aureus RN4220)

C[C@@H]1CCCCO[C@@H](CN(C)C(=O)Nc2ccc(F)cc2)[C@H](C)CN([C@@H](C)CO)C(=O)c2cc(NC(=O)Nc3cccc4ccccc34)ccc2O1
inactive: cytotoxicity call (HSkMC) | cytotoxicity call (HepG2) | growth inhibition call (S. aureus RN4220)
